# Laboratory results reported in PubChem BioAssay AID588855 (National Center for Advancing Translational Sciences (NCATS), 2011).
# About 5,000 (1.2%) of roughly 410,000 compounds were called active. The shares of active, inactive and inconclusive entries below differ from those in the screen. Calls come from the whole dose curve; as a rule, active = well fitted inhibition curve with a large enough effect; inconclusive = small, poorly fitted or top-dose-only effect; inactive = no such curve, though single readings can be large or run the other way. Potencies beside an inconclusive call are fits to weak or partial responses and may not hold up.
# Experiment: qHTS for Inhibitors of TGF-b; note: nearly all actives have a fitted effect of over 65% in size
# Details: HepG2 CAGA-GFP TGF-b/SMAD3 reporter, GFP fluorescence, 18 h, TGF-beta stimulated, 500 pg/mL final; series mostly up to 46.1 µM; activity, negative = inhibition: at the top concentration
# In short: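 HEPG2 CAGA-GFP, 1000 cells/well; 2 h settle, 37 C; cpd via pin tool; TGF-b 500 pg/mL final; 18 h, 37 C; GFP imaging ex488/em500-530; %Activity normalised to -TGF-b and +DMSO controls; CRC fit, curve class.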
# % is set by controls: 0 for no effect and ±100 for the full control effect; potency is the fitted concentration of half-maximal effect; tags give direction and shape of the fitted curve.
Compound,Potency,"activity, negative = inhibition"
N/C(=N\OC(=O)CCCc1ccccc1)c1cccnc1,"inconclusive: 0.112 µM [inhibitor, full curve, poor fit]",
CCOC(=O)c1ccc(NC(=O)c2ccc(CN3CCc4ccccc4C3)cc2)cc1,"inconclusive: 17.8 µM [inhibitor, partial curve, poor fit]",
COCCNCC(O)CON=C1c2ccccc2-c2ccccc21 (centres undefined),,inactive: -2.26%
CSc1cccc(NC(=O)/C=C/c2cccc(Cl)c2)c1,"inconclusive: 22.4 µM [inhibitor, single point]",
CN(CC(O)CON=C1c2ccccc2-c2ccccc21)S(=O)(=O)c1ccc(Br)cc1 (centres undefined),"inconclusive: 22.4 µM [inhibitor, single point]",
O=[N+]([O-])c1ccc(Nc2c3ccccc3nc3ccccc23)cc1,"inconclusive: 22.4 µM [inhibitor, single point]",
CCOc1ccc(CNn2cnnc2)cc1,,inactive: 0.167%
CCOc1ccccc1N(C)C(=O)Cn1nc(Cc2cccnc2)c2ccccc2c1=O,,inactive: -5.13%
CCOC(=O)c1c2c(n(Cc3ccccc3)c1C)C(=O)C(=O)c1ccccc1-2,"inconclusive: 4.47 µM [inhibitor, partial curve, poor fit]",
COc1ccc(CNC(=S)Nc2ccc(Br)cc2)cc1,"inconclusive: 20 µM [inhibitor, single point]",
COc1cccc(C(C)(O)c2nc(-c3ccc(C)c(C)c3)cs2)c1 (centres undefined),"inconclusive: 35.5 µM [inhibitor, single point]",
CS(=O)(=O)NCc1ccccc1Br,"inconclusive: 6.31 µM [inhibitor, single point]",
O=C(Nc1nnc(C(F)(F)F)s1)C1COc2ccccc2O1 (centres undefined),"inconclusive: 14.1 µM [inhibitor, single point]",
Nc1ccc2nc(C3CCCCC3)[nH]c2c1,"inconclusive: 5.62 µM [inhibitor, single point]",
C=C1CCC(N(O)c2cc(C)on2)C(=C)CCC2C1CC2(C)C (centres undefined),"inconclusive: 35.5 µM [inhibitor, partial curve, poor fit]",
Cc1cccc(N2CCN(C(=O)CSc3ccc4c(c3)OCCO4)CC2)c1C,"inconclusive: 17.8 µM [inhibitor, single point]",
CCOC(=O)C1(CC2CC2)CCN(Cc2cn[nH]c2-c2ccccc2)CC1,,inactive: 7.01%
COC(=O)C[C@H]1c2cc(F)cc(F)c2S(=O)(=O)N1C1CCN(Cc2ccccc2)CC1,inactive,
CC(C)c1ccc(OCC(O)Cn2cnc3ccccc32)cc1 (centres undefined),"inconclusive: 11.2 µM [inhibitor, single point]",
